{"sequences": {"note": "Amino acid sequences for entries named in this document (tags omitted).", "UniProt P70335": "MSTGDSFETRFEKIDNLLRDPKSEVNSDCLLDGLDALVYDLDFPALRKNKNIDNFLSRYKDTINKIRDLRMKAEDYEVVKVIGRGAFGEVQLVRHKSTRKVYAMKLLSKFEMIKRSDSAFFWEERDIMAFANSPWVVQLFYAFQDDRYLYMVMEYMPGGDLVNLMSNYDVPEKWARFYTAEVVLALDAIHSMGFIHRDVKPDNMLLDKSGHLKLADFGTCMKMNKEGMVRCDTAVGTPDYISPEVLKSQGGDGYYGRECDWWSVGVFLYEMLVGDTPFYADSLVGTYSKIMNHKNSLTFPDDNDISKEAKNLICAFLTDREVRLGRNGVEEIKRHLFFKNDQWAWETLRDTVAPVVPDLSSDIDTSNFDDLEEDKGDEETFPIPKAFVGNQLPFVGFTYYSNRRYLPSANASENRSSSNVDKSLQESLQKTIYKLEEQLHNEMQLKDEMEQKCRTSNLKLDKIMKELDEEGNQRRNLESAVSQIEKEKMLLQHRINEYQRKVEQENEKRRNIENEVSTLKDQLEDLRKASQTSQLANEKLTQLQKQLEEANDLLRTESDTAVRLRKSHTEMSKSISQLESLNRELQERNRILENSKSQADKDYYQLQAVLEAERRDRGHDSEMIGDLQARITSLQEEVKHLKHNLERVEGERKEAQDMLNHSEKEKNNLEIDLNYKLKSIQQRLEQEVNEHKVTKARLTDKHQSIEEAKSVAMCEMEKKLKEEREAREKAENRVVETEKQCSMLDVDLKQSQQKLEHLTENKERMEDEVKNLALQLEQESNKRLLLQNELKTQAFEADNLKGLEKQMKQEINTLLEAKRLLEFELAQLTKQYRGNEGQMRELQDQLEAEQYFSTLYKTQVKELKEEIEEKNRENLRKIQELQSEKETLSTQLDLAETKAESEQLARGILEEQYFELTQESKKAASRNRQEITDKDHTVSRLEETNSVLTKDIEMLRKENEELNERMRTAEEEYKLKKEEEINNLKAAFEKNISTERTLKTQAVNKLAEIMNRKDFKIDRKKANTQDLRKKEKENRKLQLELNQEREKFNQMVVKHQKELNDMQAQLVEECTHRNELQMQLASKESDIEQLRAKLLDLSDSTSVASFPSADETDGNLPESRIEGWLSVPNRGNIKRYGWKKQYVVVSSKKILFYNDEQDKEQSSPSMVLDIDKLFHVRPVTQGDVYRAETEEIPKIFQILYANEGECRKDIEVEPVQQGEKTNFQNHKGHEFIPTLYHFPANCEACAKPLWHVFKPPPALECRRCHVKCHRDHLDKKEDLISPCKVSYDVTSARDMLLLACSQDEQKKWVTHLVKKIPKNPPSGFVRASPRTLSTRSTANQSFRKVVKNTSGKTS", "UniProt Q8K1M6": "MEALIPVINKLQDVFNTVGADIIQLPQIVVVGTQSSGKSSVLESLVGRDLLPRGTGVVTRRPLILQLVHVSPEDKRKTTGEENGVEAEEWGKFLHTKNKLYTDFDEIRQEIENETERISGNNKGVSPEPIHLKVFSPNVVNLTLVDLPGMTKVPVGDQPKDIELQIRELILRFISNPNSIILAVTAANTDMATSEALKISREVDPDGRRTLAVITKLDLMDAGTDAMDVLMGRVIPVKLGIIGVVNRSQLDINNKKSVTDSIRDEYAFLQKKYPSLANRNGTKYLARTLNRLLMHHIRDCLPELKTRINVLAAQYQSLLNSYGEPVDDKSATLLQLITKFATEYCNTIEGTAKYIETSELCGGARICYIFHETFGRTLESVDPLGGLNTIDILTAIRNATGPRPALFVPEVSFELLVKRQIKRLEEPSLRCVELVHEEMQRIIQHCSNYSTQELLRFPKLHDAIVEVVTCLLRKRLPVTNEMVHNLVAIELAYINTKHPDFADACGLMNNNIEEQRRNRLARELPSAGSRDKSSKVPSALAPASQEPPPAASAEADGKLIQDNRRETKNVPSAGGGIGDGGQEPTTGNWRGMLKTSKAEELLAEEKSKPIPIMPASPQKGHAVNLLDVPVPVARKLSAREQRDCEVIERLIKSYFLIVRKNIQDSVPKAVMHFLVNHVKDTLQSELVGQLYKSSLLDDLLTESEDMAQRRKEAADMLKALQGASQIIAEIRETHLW"}, "source": "paper PMC11700182", "key": {"[1]": {"target": "T1, Rnd3 (a Rho family GTPase 3) (mouse (endogenous in neonatal mouse cardiomyocytes and mouse heart)) (UniProt P61588)", "T1 sequence": "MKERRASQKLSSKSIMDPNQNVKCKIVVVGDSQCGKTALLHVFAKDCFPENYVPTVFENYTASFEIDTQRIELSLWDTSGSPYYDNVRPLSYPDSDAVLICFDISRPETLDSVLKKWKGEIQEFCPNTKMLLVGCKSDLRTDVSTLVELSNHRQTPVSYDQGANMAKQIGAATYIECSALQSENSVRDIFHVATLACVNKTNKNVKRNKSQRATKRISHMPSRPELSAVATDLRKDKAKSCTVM", "experiment": "co-IP; mouse heart (cardiac) tissue lysates; IP-Western blot for Rnd3, Rock1 and Drp1"}, "[2]": {"target": "Rho-associated kinase 1 (Rock1) (mouse (endogenous in neonatal mouse cardiomyocytes and mouse heart)) (UniProt P70335)", "experiment": "co-IP; mouse heart (cardiac) tissue lysates; IP-Western blot for Rnd3, Rock1 and Drp1"}, "[3]": {"target": "T1, Rnd3 (a Rho family GTPase 3) (mouse (endogenous in neonatal mouse cardiomyocytes and mouse heart))", "experiment": "co-IP; lysates of primary mouse cardiomyocytes (500 ug protein) with 5 ug Rnd3 or Rock1 antibody or isotype IgG overnight at 4 °C; protein A/G magnetic beads; Western blot with Rnd3 and Rock1 antibodies"}, "[4]": {"target": "T1, Rnd3 (a Rho family GTPase 3) (mouse (endogenous in neonatal mouse cardiomyocytes and mouse heart))", "experiment": "co-IP; cytoplasmic fraction of cardiomyocytes (differential centrifugation, mitochondria isolation kit); IP-Western blot"}, "[5]": {"target": "T1, Rnd3 (a Rho family GTPase 3) (mouse (endogenous in neonatal mouse cardiomyocytes and mouse heart))", "experiment": "condition: only in the mitochondrial fraction isolated from cardiomyocytes; co-IP; mitochondrial fraction isolated from cardiomyocytes (differential centrifugation, mitochondria isolation kit); IP-Western blot"}, "[6]": {"target": "Rho-associated kinase 1 (Rock1) (mouse (endogenous in neonatal mouse cardiomyocytes and mouse heart)) (UniProt P70335)", "experiment": "co-IP; lysates of primary mouse cardiomyocytes (500 ug protein) with 5 ug Rnd3 or Rock1 antibody or isotype IgG overnight at 4 °C; protein A/G magnetic beads; Western blot with Rnd3 and Rock1 antibodies"}}, "note": "No constants are given. Whether binding was seen depends on the method and setting. Binding seen in cells or lysates may run through a third protein. Some results given as binding are weak or reduced against the parent protein; the word gives no strength.", "data": [{"molecule": "dynamin-related protein 1 (Drp1) (from UniProt Q8K1M6 1-736)", "values": [{"measurement": "binding", "setting": "[1]", "value": "binds"}, {"measurement": "binding", "setting": "[2]", "value": "binds"}]}, {"molecule": "Rho-associated kinase 1 (Rock1) (from UniProt P70335 1-1354) (enzyme)", "values": [{"measurement": "binding", "setting": "[3]", "value": "binds"}, {"measurement": "binding", "setting": "[4]", "value": "binds"}, {"measurement": "binding", "setting": "[1]", "value": "binds"}, {"measurement": "binding", "setting": "[5]", "value": "no binding"}]}, {"molecule": "Rnd3 (a Rho family GTPase 3) (protein, UniProt P61588 1-244) MKERRASQKLSSKSIMDPNQNVKCKIVVVGDSQCGKTALLHVFAKDCFPENYVPTVFENYTASFEIDTQRIELSLWDTSGSPYYDNVRPLSYPDSDAVLICFDISRPETLDSVLKKWKGEIQEFCPNTKMLLVGCKSDLRTDVSTLVELSNHRQTPVSYDQGANMAKQIGAATYIECSALQSENSVRDIFHVATLACVNKTNKNVKRNKSQRATKRISHMPSRPELSAVATDLRKDKAKSCTVM", "values": [{"measurement": "binding", "setting": "[6]", "value": "binds"}]}]}
